# Results reported in PubChem BioAssay AID662 (National Center for Advancing Translational Sciences (NCATS), 2007).
# In all, about 71,000 compounds went through this assay and about 1,800 (2.5%) were called active. Inconclusive results, whose numbers are uncertain, are shown with a selection of clear calls. Calls follow the shape of the dose curve; as a rule, active = well fitted activation curve with a large enough effect in the signal ratio, with a control signal flat (not every such curve was filed as active); inconclusive = small, poorly fitted or top-dose-only effect, or effect the other way, or a change in a side signal; inactive = flat fitted curve, though single readings scatter; the % refers to the signal ratio. A potency beside an inconclusive call is a rough fit, not a confirmed value.
# Experiment: Cell signaling CRE-BLA (Fsk stim); as to activity change, negative = inhibition: % of control where 0% means no effect
# Conditions: CHO CRE-bla reporter (cAMP response element driving beta-lactamase), forskolin EC10, beta-lactamase ratio; activity change, negative = inhibition: at 38.2 µM (top of the series) unless noted
# Summary of the method: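 Modulation of forskolin signalling: compounds in titration series added with EC10 NKH 477 to CHO cells carrying a CRE-driven beta-lactamase reporter, 3 h, 37C. CCF4 FRET ratio (460/530 nm, ex 405 nm) gives %activity and AC50.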
# Potency is read from the fitted curve at half-maximal effect; tags tell the direction and shape of the fitted curve.
Structure (SMILES),"activity change, negative = inhibition",Potency
Cc1nnc(SCC2=C(C(=O)O)N3C(=O)[C@@H](NC(=O)Cn4cnnn4)[C@@H]3SC2)s1,inactive,–
CCn1cc(C(=O)NC2CCCCCC2)c2cc(OC)c(OC)cc2c1=O,–,"inconclusive: 3.98 µM [rising, partial curve]"
CN(C)CCCN1C(=O)c2oc3ccccc3c(=O)c2C1c1cccs1 (stereo not given),inactive,–
O=C(c1cnn2c(C(F)F)cc(-c3ccccc3)nc12)N1CCN2CCCC2C1 (stereo not given),–,"inconclusive: 25.1 µM [rising, single point]"
COc1ccc(S(=O)(=O)n2nc(-c3cc(OC)c(OC)c(OC)c3)cc2N)cc1OC,–,active: 5.01 µM
O=S(=O)(NCc1cccs1)c1cccc2cccnc12,inconclusive: 6.77%,–
COc1ccc(-c2n[nH]c(C)c2-c2ccc(Cl)cc2)c(O)c1OC,inconclusive: 10.4%,–
O=C(O)c1coc2ccccc12,inactive,–
COc1cc(N)c(Cl)cc1C(=O)CCC1CCN(CCNS(C)(=O)=O)CC1,inactive,–
c1ccc(-n2nnnc2-n2nnc3ccccc32)cc1,–,"inconclusive: 3.98 µM [falling, single point]"
Cc1cccc(N2CCN(C(=O)C3CCN(S(=O)(=O)c4cccc5nsnc45)CC3)CC2C)c1 (stereo not given),–,"inconclusive: 12.6 µM [falling, partial curve]"
COc1ccc(S(=O)(=O)N2CCCC(C(=O)NCc3ccncc3)C2)cc1 (stereo not given),inactive,–
CC(C)(C)NC(=O)CN(Cc1cccnc1)C(=O)c1csnn1,inconclusive: -6.57%,–
CCCCCCC(=O)N1CCC(c2nc3c(nnn3Cc3ccccc3Cl)c(=O)[nH]2)CC1,–,"inconclusive: 10 µM [rising, partial curve]"
COc1ccccc1C1SCCN1S(C)(=O)=O (stereo not given),inconclusive: -12.7%,–
Cc1nc2sc3c(c2c2nc(-c4ccco4)nn12)CCCC3,inconclusive: 9.3%,–
COc1ccccc1C(=O)n1nc(-c2ccccc2)nc1NCc1ccco1,inactive,–
O=C(NCCCN1CCN(Cc2ccccc2)CC1)C1CCN(S(=O)(=O)N2CCCC2)CC1,inconclusive: -4.25%,–
Cc1ccc2c(c1)cc(C)c1nnc(SCC(=O)NCc3ccco3)n12,–,"inconclusive: 10 µM [rising, single point]"
Cc1ccc(C)c(N(C)C(=O)COc2cc(=O)n(C)c3ccccc23)c1,–,"inconclusive: 12.6 µM [rising, single point]"
Cc1ccc(N(CC(O)CN2CCCC2)S(=O)(=O)c2ccccc2)cc1 (stereo not given),inconclusive: -16.6% [at 7.6 µM],–
Cc1nc2cnc(N3CCOCC3)nc2n(CCc2ccccc2)c1=O,–,active: 12.6 µM

Structure (SMILES),"activity change, negative = inhibition",Potency
COCCNC(=O)C1(CC(C)C)C=CCN1C(=O)OC (stereo not given),inactive,–
CCn1c(COc2ccccc2)nnc1SCC(=O)C(C)(C)C,–,"inconclusive: 25.1 µM [rising, single point]"
O=c1c(-c2ccccc2)nc2cnc(Oc3cccc(Cl)c3)nc2n1C1CC1,inconclusive: 12.9%,–
COC(=O)c1cc(OC)c(OC)cc1NC(=O)c1c(-c2ccccc2)noc1C,–,"inconclusive: 5.01 µM [rising, partial curve]"
NC(Cc1ccccc1)=NCC(=O)O,inactive: 11% [at 7.6 µM],–
Cc1cc(Nc2ccc(F)cc2C)n2ncnc2n1,inconclusive: 26.1%,–
Cn1c(=O)c(-c2ccc(Cl)cc2)nc2cnc(Nc3ccccc3)nc21,–,active: 12.6 µM
Cc1onc(-c2ccccc2Cl)c1C(=O)Nc1ccc(-n2nncc2C(C)(C)C)cc1,inactive,–
Cc1ccc(Cc2c(C)nc3nc(SCC(=O)NCc4ccco4)nn3c2C)cc1,inconclusive: 27.3%,–
CCOC(=O)C1CCN(C(c2ccc(OC)c(OC)c2)c2sc3nc(C)nn3c2O)CC1 (stereo not given),–,"inconclusive: 10 µM [rising, single point]"
COc1cc(C(c2sc3nc(C)nn3c2O)N2CC(C)CC(C)C2)cc(OC)c1OC (stereo not given),inactive,–
COc1cc(C(=O)NCc2ccc3c(c2)OCO3)ccc1OCc1c(C)noc1C,inactive,–
Nc1cc(-c2cccc(F)c2)nn1S(=O)(=O)c1cccc2nsnc12,inactive,–
Cc1ccc2cccc(S(=O)(=O)Nc3ccc4c(c3)OCO4)c2n1,inconclusive: -13.4%,–
C1CCN(c2nc(N3CCCC3)nc(N3CCNCC3)n2)C1,–,"inconclusive: 20 µM [falling, single point]"
CCC(=O)Nn1c(C)nnc1C,inactive,–
CCOC(=O)N1CCC(N2C(=O)c3ccccc3C2Nc2ccc3c(C)cc(=O)oc3c2)CC1 (stereo not given),inconclusive: 21.9%,–
Cc1ccc(-c2nn(C)c(=O)c3ccccc23)cc1CO,–,"inconclusive: 10 µM [rising, partial curve]"
COc1ccc2ccccc2c1C1CC(=O)N2CN(C3CCCCC3)CSC2=C1C#N (stereo not given),inconclusive: -22.3%,–
c1ccc(CN2CC[C@@H](CNc3ncnc4ccccc34)C2)cc1,inactive: -1.71% [at 7.6 µM],–
COc1ccc2c(c1)C(=O)N(CCc1ccc(S(=O)(=O)NC(=O)NC3CCCCC3)cc1)C(=O)C2(C)C,–,"inconclusive: 10 µM [rising, single point]"
O=C(Oc1ccccc1)N1CCC2(CCCN(c3ncccn3)C2)CC1,inactive,–

Structure (SMILES),"activity change, negative = inhibition",Potency
O=C(CSc1nc(-c2ccco2)cc(C(F)(F)F)n1)NCC1CCCO1 (stereo not given),inactive,–
Cc1ccc2oc(=O)c3cc(C(=O)N4CCN(c5ncccn5)CC4)sc3c2c1,–,"inconclusive: 3.16 µM [rising, single point]"
CCOC(=O)CN(C(=O)c1ccccc1)c1ccccc1C,inactive,–
CCOC(=O)N1CCN(C(=O)c2cnn3c(C)c(Cc4ccc(C)cc4)c(C)nc23)CC1,inactive,–
Fc1cccc(CN2CCN(c3ncccn3)CC2)c1,–,"inconclusive: 0.0251 µM [rising, full curve]"
CC1(C)Oc2ccc(NC(=O)C3COc4ccccc4O3)cc2O1 (stereo not given),inactive,–
CCCN(S(=O)(=O)c1ccc(OCC)cc1)S(=O)(=O)c1cccs1,inactive,–
CC(C)CC1(C(=O)O)C=CCN1C(=O)c1ccccc1 (stereo not given),inactive,–
C[C@@H](CNC1CCCCC1)OC(=O)c1ccccc1,inactive,–
CN(c1ccc(C(=O)O)cc1)S(=O)(=O)c1ccc(Cl)cc1,inactive,–
COc1ccc2[nH]c(=O)c(CN(Cc3ccccc3OC)Cc3nnnn3CC3CCCO3)cc2c1 (stereo not given),inactive,–
Cc1cc(=O)[nH]c2n[nH]c(-c3ccccc3)c12,inactive,–
N#CC1=C2C=CC=CN2CC1=O,inconclusive: 3.45%,–
c1ccc2c(c1)CCCN2c1nc2ccccc2n2cnnc12,inactive,–
COc1ccc2[nH]cc(CCNc3nc(-c4cccc(NS(C)(=O)=O)c4)nc4ccccc34)c2c1,inconclusive: -8.68%,–
CC12C(=O)N(Cc3ccccc3)C(=O)C1C1C=CC2C1 (stereo not given),inconclusive: 5.8%,–
Cc1cc(C)n(-c2cc(-n3nc(C)cc3C)ncn2)n1,inconclusive: 20.3% [at 7.6 µM],–
C=CCn1c(SCC(=O)NC2CCS(=O)(=O)C2)nc2scc(C3CC3)c2c1=O (stereo not given),–,"inconclusive: 5.01 µM [falling, single point]"
Cc1nc2cnc(N3CCOCC3)nc2n(Cc2cccs2)c1=O,–,active: 2.51 µM
NS(=O)(=O)Cc1noc2ccccc12,inactive,–
Cn1c(=O)c2c(nc(CN3CCN(c4cccc(Cl)c4)CC3)n2CCc2ccccc2)n(C)c1=O,–,"inconclusive: 12.6 µM [rising, partial curve]"
COC(=O)CCc1c(C)c(C#N)c2nc3ccccc3n2c1N1CCCC1,–,"inconclusive: 3.16 µM [rising, partial curve]"

Structure (SMILES),"activity change, negative = inhibition",Potency
CCOC(=O)CSc1nnc(-c2ccc(S(=O)(=O)N3CCC(C)CC3)cc2)o1,inconclusive: 7.82% [cytotoxic],–
COc1cccc(NC(=O)CSc2ccccn2)c1,inconclusive: -12.8%,–
Cc1cc(N2CCN(c3ccccc3)CC2)nc(-c2ccccc2)n1,inconclusive: 8.22%,–
COc1cccc(-n2nnc3c(=O)n(CC(=O)NCC4CCCO4)cnc32)c1 (stereo not given),–,"inconclusive: 12.6 µM [rising, single point]"
Cc1nc2c(C(=O)NCc3ccc4c(c3)OCO4)c[nH]n2c(=O)c1Cc1ccccc1F,inconclusive: -28.4%,–
O=C(Oc1nsnc1N1CCOCC1)N(c1ccccc1)c1ccccc1,inconclusive: 18.2%,–
Cc1noc(/C=C/N(C)C)c1S(=O)(=O)N1CCC(C(=O)O)CC1,inactive,–
O=C(c1coc2ccccc2c1=O)N1CCN(c2cccc(C(F)(F)F)c2)CC1,inactive,–
CC(=O)n1nc2nc(C)cc(C)c2c1N,inactive,–
CCOC(=O)C1=C(c2ccccc2)OC(N)=C(C#N)C1C(C)C (stereo not given),–,"inconclusive: 25.1 µM [rising, single point]"
COc1cccc2cc(C(=O)NC(C)C3CCCO3)c(=O)oc12 (stereo not given),inconclusive: -1.71%,–
O=C(OCc1ccc(F)cc1Cl)c1ccccn1,inconclusive: -2.14%,–
C[C@H](NC[C@H](O)CP(=O)(O)Cc1ccccc1)c1ccc(Cl)c(Cl)c1,inconclusive: -25.9%,–
O=C(Nc1ccc2ccccc2c1)[C@H]1C[C@@H]1[C@H](NP(=O)(c1ccccc1)c1ccccc1)c1ccccc1,inactive,–
CCOC(=O)N1CCN(C(=O)c2ccc3c(=O)n(Cc4ccc(Cl)cc4)c(=S)[nH]c3c2)CC1,inactive,–
COc1ccccc1NC(=O)C1C2C=CC(O2)C1C(=O)O (stereo not given),inactive,–
COCCn1c(=S)[nH]c2cc(C(=O)NCC3CCCO3)ccc2c1=O (stereo not given),–,"inconclusive: 15.8 µM [rising, single point]"
O=C(Cn1ncc2c1-c1ccccc1OC2)Nc1nc2ccccc2s1,inconclusive: -11.8%,–
COc1ccc(CNC(=O)C(C)OC(=O)c2cccn2C)cc1 (stereo not given),inconclusive: -6.68%,–
